Assay results reported in USRE49949E1, “Reducing risk of contracting clostridium-difficile associated disease” (The Board of Regents of the Nevada System of Higher …, priority 2012, dated 2024).

Tests used:
C. difficile spores [1] = assay: Inhibition of C. difficile spore germination by amino acid and taurocholate analogs; format: cell-based, Clostridium difficile strain 630; conditions: for IC50: spores incubated with bile salt analogs 15 min prior to 6 mM taurocholate and 12 mM glycine, NA = no change in absorbance after 90 minutes, read-out: IC50 (stdev); for inhibition of spore germination by amino acid analog: in the presence of taurocholate and glycine (D-alanine: L-alanine and taurocholate)
C. difficile spores [2] = assay: Activation of C. difficile spore germination by taurocholate / bile salt analogs; format: cell-based, Clostridium difficile strain 630; conditions: for activation of spore germination by taurocholate analog: in the presence of glycine, in buffer

Row | Molecule | IC50 (C. difficile spores [1]) | further results
1 | COC(=O)CC[C@@H](C)[C@H]1CC[C@H]2[C@@H]3CC[C@@H]4C[C@H](O)CC[C@]4(C)[C@H]3C[C@@H](O)[C@]12C [Compound 86] | 95 µM | 
2 | C[C@H](CCC(=O)NCCCCCC(=O)O)[C@H]1CC[C@H]2[C@@H]3[C@H](O)C[C@@H]4C[C@H](O)CC[C@]4(C)[C@H]3CC[C@]12C [Compound 63] | 1100 µM | 
3 | CCOC(=O)CC[C@@H](C)[C@H]1CC[C@H]2[C@@H]3[C@H](O)C[C@@H]4C[C@H](O)CC[C@]4(C)[C@H]3C[C@H](O)[C@]12C [Compound 80] | 8.2 µM | 
4 | COC(=O)CC[C@@H](C)[C@H]1CC[C@H]2[C@@H]3C[C@H](O)[C@@H]4C[C@H](O)CC[C@]4(C)[C@H]3CC[C@]12C [Compound 88] | 37 µM | 
5 | C[C@H](CCC(=O)Nc1cccc(N)c1)[C@H]1CC[C@H]2[C@@H]3[C@H](O)C[C@@H]4C[C@H](O)CC[C@]4(C)[C@H]3C[C@H](O)[C@]12C [Compound 34] | 530 µM | 
6 | C[C@H](CCC(=O)Nc1cccc(S(=O)(=O)O)c1)[C@H]1CC[C@H]2[C@@H]3[C@H](O)C[C@@H]4C[C@H](O)CC[C@]4(C)[C@H]3CC[C@]12C [Compound 65] | 6500 µM | 
7 | C[C@H](CCC(=O)Nc1cccc(C(=O)O)c1)[C@H]1CC[C@H]2[C@@H]3[C@H](O)C[C@@H]4C[C@H](O)CC[C@]4(C)[C@H]3C[C@H](O)[C@]12C [Compound 23] | 3100 µM | 
8 | C[C@H](CCC(=O)NCCC(=O)O)[C@H]1CC[C@H]2[C@@H]3[C@H](O)C[C@@H]4C[C@H](O)CC[C@]4(C)[C@H]3C[C@H](O)[C@]12C [Compound T18, 2-[(3α,7α,12α-trihydroxy-24-oxo-5β-cholan-24-yl)amino]ethancarboxylic acid] |  | activation of spore germination by taurocholate analog (C. difficile spores [2]): inactive
9 | C[C@H](CCC(=O)O)[C@H]1CC[C@H]2[C@@H]3CC[C@@H]4C[C@@H](O)CC[C@]4(C)[C@H]3C[C@H](O)[C@]12C [Compound 84] | 780 µM | 
10 | CN(C)CC(=O)O [Compound A12, N,N-dimethylglycine, reference compound] |  | inhibition of spore germination by amino acid analog (C. difficile spores [1]): neither activate nor inhibit
11 | C[C@H](CCC(=O)Nc1ccccc1)[C@H]1CC[C@H]2[C@@H]3[C@H](O)C[C@@H]4C[C@H](O)CC[C@]4(C)[C@H]3C[C@H](O)[C@]12C [Compound 21] | 270 µM | 
12 | CC(CCCO)C1CCC2C3C(O)CC4CC(O)CCC4(C)C3CC(O)C12C (centres unmarked) [Compound 76] | 330 µM | 
13 | COC(=O)[C@@H](C)[C@H]1CC[C@H]2[C@@H]3[C@H](O)C[C@@H]4C[C@H](O)CC[C@]4(C)[C@H]3C[C@H](O)[C@]12C [Compound 79] | 660 µM | 
14 | C[C@H](CCC(=O)NCCC(=O)O)[C@H]1CC[C@H]2[C@@H]3[C@H](O)C[C@@H]4C[C@H](O)CC[C@]4(C)[C@H]3CC[C@]12C [Compound 60] | 3900 µM | 
15 | COC(=O)CC[C@@H](C)[C@H]1CC[C@H]2[C@@H]3CC[C@@H]4C[C@H](O)CC[C@]4(C)[C@H]3C[C@H](O)[C@]12C [Compound 85] | 97 µM | 
16 | C[C@H](CCC(=O)O)[C@H]1CC[C@H]2[C@@H]3CC[C@@H]4C[C@H](O)CC[C@]4(C)[C@H]3C[C@H](O)[C@]12C [Compound 82] | 190 µM | 
17 | C[C@H](CCC(=O)Nc1ccc(C(=O)O)cc1)[C@H]1CC[C@H]2[C@@H]3[C@H](O)C[C@@H]4C[C@H](O)CC[C@]4(C)[C@H]3C[C@H](O)[C@]12C [Compound 25] | 1400 µM | 
18 | C[C@H](CCC(=O)NCCC(N)CCCC(=O)O)[C@H]1CC[C@H]2[C@@H]3[C@H](O)C[C@@H]4C[C@H](O)CC[C@]4(C)[C@H]3C[C@H](O)[C@]12C (stereo partly drawn) [Compound T19, 6-[(3α,7α,12α-trihydroxy-24-oxo-5β-cholan-24-yl)amino]-(4-amino)hexanecarboxylic acid] |  | activation of spore germination by taurocholate analog (C. difficile spores [2]): inactive
19 | Cc1cc(C)c(S(=O)(=O)O)cc1NC(=O)CC[C@@H](C)[C@H]1CC[C@H]2[C@@H]3[C@H](O)C[C@@H]4C[C@H](O)CC[C@]4(C)[C@H]3CC[C@]12C [Compound 72] | 920 µM | 
20 | Cc1ccc(NC(=O)CC[C@@H](C)[C@H]2CC[C@H]3[C@@H]4[C@H](O)C[C@@H]5C[C@H](O)CC[C@]5(C)[C@H]4CC[C@]23C)cc1C(=O)O [Compound 71] | 92 µM | 
21 | C[C@H](CCC(=O)NCCCCCC(=O)O)[C@H]1CC[C@H]2[C@@H]3[C@H](O)C[C@@H]4C[C@H](O)CC[C@]4(C)[C@H]3C[C@H](O)[C@]12C [Compound 16] | 2300 µM | 
22 | taurocholanate [Compound T06, reference compound] |  | activation of spore germination by taurocholate analog (C. difficile spores [2]): unable to activate germination
23 | Cc1ccc(NC(=O)CC[C@@H](C)[C@H]2CC[C@H]3[C@@H]4[C@H](O)C[C@@H]5C[C@H](O)CC[C@]5(C)[C@H]4C[C@H](O)[C@]23C)cc1C(=O)O [Compound 39] | 11000 µM | 
24 | C[C@H](CCC(=O)NCC(=O)O)[C@H]1CC[C@H]2[C@@H]3[C@H](O)C[C@@H]4C[C@H](O)CC[C@]4(C)[C@H]3C[C@H](O)[C@]12C [Compound T17, 3α,7α,12α-Trihydroxy-5β-cholan-24-oic acid N-(carboxymethyl)amide, reference compound] |  | activation of spore germination by taurocholate analog (C. difficile spores [2]): able to significantly activate

Row | Molecule | IC50 (C. difficile spores [1]) | further results
25 | COC(=O)CC[C@@H](C)[C@H]1CC[C@H]2[C@@H]3[C@H](O)C[C@@H]4C[C@H](O)CC[C@]4(C)[C@H]3C[C@H](O)[C@]12C [Compound 77] | 59 µM | 
26 | C[C@H](CCC(=O)NC1CCC(C(=O)O)C1)[C@H]1CC[C@H]2[C@@H]3[C@H](O)C[C@@H]4C[C@H](O)CC[C@]4(C)[C@H]3C[C@H](O)[C@]12C (some centres unmarked) [Compound 26] | 470 µM | 
27 | C[C@H](CCC(=O)Nc1cccc(C(=O)O)c1)[C@H]1CC[C@H]2[C@@H]3[C@H](O)C[C@@H]4C[C@H](O)CC[C@]4(C)[C@H]3CC[C@]12C [Compound 67] | 930 µM | 
28 | NCC(=O)NO [Compound A08, glycine hydroxamate, reference compound] |  | inhibition of spore germination by amino acid analog (C. difficile spores [1]): unable to activate or inhibit
29 | C[C@H](CCC(=O)NCCCCC(=O)NCCCCC(=O)O)[C@H]1CC[C@H]2[C@@H]3[C@H](O)C[C@@H]4C[C@H](O)CC[C@]4(C)[C@H]3CC[C@]12C [Compound 62] | 1900 µM | 
30 | C[C@H](CCC(=O)NCCCCC(=O)O)[C@H]1CC[C@H]2[C@@H]3[C@H](O)C[C@@H]4C[C@H](O)CC[C@]4(C)[C@H]3C[C@H](O)[C@]12C [Compound 14] | 5300 µM | 
31 | CNCC(=O)O [Compound A11, sarcosine, reference compound] |  | inhibition of spore germination by amino acid analog (C. difficile spores [1]): neither activate nor inhibit
32 | C[C@H](CCC(=O)NCCS(=O)(=O)O)[C@H]1CC[C@H]2[C@@H]3[C@H](O)[C@H](O)[C@@H]4C[C@H](O)CC[C@]4(C)[C@H]3CC[C@]12C [Compound T07, taurohycholate, reference compound] |  | activation of spore germination by taurocholate analog (C. difficile spores [2]): Neither of these compounds is able to significantly activate
33 | C[C@H](CCC(=O)NCCCCC(=O)O)[C@H]1CC[C@H]2[C@@H]3[C@H](O)C[C@@H]4C[C@H](O)CC[C@]4(C)[C@H]3CC[C@]12C [Compound 61] | 640 µM | 
34 | COC(=O)CC[C@@H](C)[C@H]1CC[C@H]2[C@@H]3CC[C@@H]4C[C@@H](O)CC[C@]4(C)[C@H]3CC[C@]12C [Compound 91] | 1300 µM | 
35 | C[C@H](CCC(=O)NCCS(=O)(=O)O)[C@H]1CC[C@H]2[C@@H]3CC[C@@H]4C[C@H](O)CC[C@]4(C)[C@H]3CC[C@]12C [Compound T05, taurolithocholate, reference compound] |  | activation of spore germination by taurocholate analog (C. difficile spores [2]): unable to activate germination
36 | C[C@H](CCC(=O)NCCCCCC(=O)NCCCCCC(=O)O)[C@H]1CC[C@H]2[C@@H]3[C@H](O)C[C@@H]4C[C@H](O)CC[C@]4(C)[C@H]3CC[C@]12C [Compound 64] | 8600 µM | 
37 | C[C@H](CCC(=O)NCCS(=O)(=O)O)[C@H]1CC[C@H]2[C@@H]3CC[C@@H]4C[C@H](O)CC[C@]4(C)[C@H]3C[C@H](O)[C@]12C [Compound T02, taurodeoxycholate, reference compound] |  | reduction of germination compared with taurocholate (C. difficile spores [2]; 6 mM analog and 12 mM glycine): more than 70%
38 | C[C@H](CCC(=O)O)[C@H]1CC[C@H]2[C@@H]3C[C@H](O)[C@@H]4C[C@H](O)CC[C@]4(C)[C@H]3CC[C@]12C [Compound 87] | 1240 µM | 
39 | Cc1cc(NC(=O)CC[C@@H](C)[C@H]2CC[C@H]3[C@@H]4[C@H](O)C[C@@H]5C[C@H](O)CC[C@]5(C)[C@H]4CC[C@]23C)cc(S(=O)(=O)O)c1C [Compound 73] | 750 µM | 
40 | NCC(N)=O [Compound A07, glycinamide, reference compound] |  | inhibition of spore germination by amino acid analog (C. difficile spores [1]): unable to activate or inhibit
41 | Cc1cc(C)c(S(=O)(=O)O)cc1NC(=O)CC[C@@H](C)[C@H]1CC[C@H]2[C@@H]3[C@H](O)C[C@@H]4C[C@H](O)CC[C@]4(C)[C@H]3C[C@H](O)[C@]12C [Compound 40] | 5600 µM | 
42 | CCOC(=O)CN [Compound A06, glycine ethyl ester, reference compound] |  | inhibition of spore germination by amino acid analog (C. difficile spores [1]): unable to activate or inhibit
43 | C[C@H](CCC(=O)NCCS(=O)O)[C@H]1CC[C@H]2[C@@H]3[C@H](O)C[C@@H]4C[C@H](O)CC[C@]4(C)[C@H]3CC[C@]12C [Compound 59] | 5300 µM | 
44 | COC(=O)CC[C@@H](C)[C@H]1CC[C@H]2[C@@H]3CC[C@@H]4CCCC[C@]4(C)[C@H]3C[C@H](O)[C@]12C [Compound 90] | 370 µM | 
45 | C[C@@H](N)C(=O)O [Compound A17, D-alanine, reference compound] |  | inhibition of spore germination by amino acid analog (C. difficile spores [1]): unable to inhibit
46 | C[N+](C)(C)CC(=O)O [Compound A13, betaine, reference compound] |  | inhibition of spore germination by amino acid analog (C. difficile spores [1]): neither activate nor inhibit
47 | COC(=O)C[C@@H](C)[C@H]1CC[C@H]2[C@@H]3[C@H](O)C[C@@H]4C[C@H](O)CC[C@]4(C)[C@H]3C[C@H](O)[C@]12C [Compound 78] | 150 µM | 
